Patent US20090156471A1, “Use of anti-amyloid agents for treating and typing pathogen infections” (RAMOT AT TEL AVIV UNIVERSITY LTD., priority 2005, published 2009)

System: curli-expressing bacteria (E. coli XL1-Blue(pMRInv))
Settings: grown 12 hours at 37° C. with 0, 10, 50 and 100 μM copper; data not shown
Method: Thus, although the binding is clearly stoichiometric the affinity for a single repeat is not high. Yet, the binding to the full-length protein may show cooperative behavior. […] This was deduced by inspecting QHGGGN peptides using electron microscopy, following 48 hours incubation with equimolar ratio of CuCl2 in 50 mM HEPES, pH 7.5 at room-temperature. […] However, this may be also due to the stress conditions imposed by the copper.

[Cl][Cu][Cl] [copper, CuCl2]
density of the bacterial biofilm: higher in correlative manner
